Data on ten cell lines can be found in the supplement of paper PMC4967469.

Broadly, the IC50 is the concentration needed to halve the response being measured.

Assay in all cases: Viability of human cancer cell lines after 72 h of drug (GDSC screen)
Compound in assay [1]: CN(c1ncccc1CNc1nc(Nc2ccc3c(c2)CC(=O)N3)ncc1C(F)(F)F)S(C)(=O)=O [PF-562271]
Conditions: top dose 2.56 µM; top dose inferred. On the procedure:
(§1)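 Human cancer cell lines in 384-well plates, medium with 10% serum, drug for 72 h over a 256-fold dose range (nine 2-fold or five 4-fold steps up to the top dose). Adherent lines were fixed and stained with the nucleic acid dye Syto60, suspension lines read with resazurin; signal relative to control wells, capped at 0 and 100%. One two-parameter sigmoid per drug and line, fitted in a mixed model over all curves with the slope shared within a line.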

Compound in assay [2]: CN(C)C/C=C/C(=O)Nc1cc2c(Nc3ccc(F)c(Cl)c3)ncnc2cc1O[C@H]1CCOC1 [Afatinib]
On the procedure: as §1

Compound in assay [3]: CC1(C)CC(=O)c2c(C(F)(F)F)nn(-c3ccc(C(N)=O)c(N[C@H]4CC[C@H](O)CC4)c3)c2C1 [SNX-2112]
The following applies: top dose 2.56 µM. The protocol: as §1

Compound in assay [4]: O=C(NC1CC1)c1cccc(-c2ccc3c(NC(=O)C4CC4)n[nH]c3c2)c1 [XMD13-2]
Conditions: top dose 10.24 µM; top dose inferred. On the procedure:
as §1

Compound in assay [5]: CC[C@]1(O)C[C@@H]2CN(CCc3c([nH]c4ccccc34)[C@@](C(=O)OC)(c3cc4c(cc3OC)N(C)[C@H]3[C@@](O)(C(=O)OC)[C@H](OC(C)=O)[C@]5(CC)C=CCN6CC[C@]43[C@@H]65)C2)C1 [Vinblastine]
The following applies: top dose 0.1 µM; top dose inferred. The protocol: as §1

[6] abbreviates: top dose 0.5 µM, screen: GDSC drug entry 1032.
Setting [7] is: top dose 10 µM, screen: GDSC drug entry 1377, top dose inferred.

Lines with a small IC50 respond at low doses; where the fit passes the top or lowest dose, that dose stands as a limit. AUC is the area under the same curve over the 256-fold range up to the top dose, as a fraction; values near 1 show little effect. For part of these data: Where the top dose is marked as inferred, it was calculated from the reported fits. For part of these data: Drugs with an entry number were screened twice under separate entries, and the two screens often disagree.

As to KYSE-220 (oesophagus, adherent), the AUC in assay [1] came to 0.914; in assay [2] (setting [6]), 0.786; in assay [2] (setting [7]), 0.789; in assay [3], 0.609; in assay [4], 0.901; in assay [5], 0.573. The IC50 in assay [1] was > 2560 nM; in assay [2] (setting [6]) it was 228 nM; in assay [2] (setting [7]) it was 4700 nM; in assay [3], 324 nM; in assay [4], > 10200 nM; in assay [5], 10 nM.
For the cell line KYSE-410 (oesophagus, adherent), the AUC was determined as 0.841 in assay [1]; 0.657 in assay [2] (setting [6]); 0.79 in assay [2] (setting [7]); 0.782 in assay [3]; 0.956 in assay [4]; 0.483 in assay [5]. Also, the IC50 in assay [1] is 1950 nM; in assay [2] (setting [6]) it was 88 nM; in assay [2] (setting [7]), 4790 nM; in assay [3] it was 1140 nM; in assay [4], > 10200 nM; in assay [5], 5.61 nM.
As for KYSE-450 (oesophagus, adherent), the AUC in assay [1] was 0.919; in assay [2] (setting [6]), 0.695; in assay [2] (setting [7]), 0.226; in assay [3], 0.276; in assay [4] it was 0.811; in assay [5] it was 0.592. Further, the IC50 in assay [1] is > 2560 nM; in assay [2] (setting [6]) it was 106 nM; in assay [2] (setting [7]), 106 nM; in assay [3], 38.7 nM; in assay [4], 5060 nM; in assay [5], 11 nM.
As to KYSE-510 (oesophagus, adherent), the AUC in assay [1] is 0.859; in assay [2] (setting [6]) it was 0.986; in assay [2] (setting [7]) it was 0.926; in assay [3], 0.717; in assay [4], 0.973; in assay [5], 0.447. The IC50 in assay [1] is 1570 nM; in assay [2] (setting [6]), > 500 nM; in assay [2] (setting [7]) it was > 10000 nM; in assay [3], 579 nM; in assay [4], > 10200 nM; in assay [5], 4.6 nM.
Consider KYSE-520 (oesophagus, adherent), for which the AUC was 0.929 in assay [1]; 0.92 in assay [2] (setting [6]); 0.975 in assay [2] (setting [7]); 0.729 in assay [3]; 0.963 in assay [4]; 0.7 in assay [5]. In addition, the IC50 in assay [1] was > 2560 nM; in assay [2] (setting [6]) it was > 500 nM; in assay [2] (setting [7]), > 10000 nM; in assay [3], 916 nM; in assay [4] it was > 10200 nM; in assay [5] it was 28 nM.
With L-363 (myeloma, suspension), the AUC was found to be 0.949 in assay [1]; 0.977 in assay [2] (setting [6]); 0.978 in assay [2] (setting [7]); 0.377 in assay [3]; 0.874 in assay [4]; 0.538 in assay [5]. Besides, the 50% inhibitory concentration (IC50) in assay [1] was > 2560 nM; in assay [2] (setting [6]), > 500 nM; in assay [2] (setting [7]), > 10000 nM; in assay [3], 77.2 nM; in assay [4], 7670 nM; in assay [5], 7.79 nM.
In the case of L-428 (Hodgkin lymphoma, suspension), the AUC in assay [1] was determined as 0.993; in assay [2] (setting [6]), 0.993; in assay [2] (setting [7]), 0.992; in assay [3], 0.834; in assay [4], 0.981; in assay [5] it was 0.802. Besides, the IC50 in assay [1] is > 2560 nM; in assay [2] (setting [6]), > 500 nM; in assay [2] (setting [7]), > 10000 nM; in assay [3], 1400 nM; in assay [4] it was > 10200 nM; in assay [5], 42.4 nM.
L-540 (Hodgkin lymphoma, suspension): the AUC is 0.954 in assay [1]; 0.986 in assay [2] (setting [6]); 0.974 in assay [2] (setting [7]); 0.877 in assay [3]; 0.903 in assay [4]; 0.461 in assay [5]. In addition, the 50% inhibitory concentration (IC50) in assay [1] is > 2560 nM; in assay [2] (setting [6]), > 500 nM; in assay [2] (setting [7]) it was > 10000 nM; in assay [3], 2100 nM; in assay [4], > 10200 nM; in assay [5], 4.96 nM.
“LAMA-84 (chronic myeloid leukaemia, suspension)”: the AUC in assay [1] amounted to 0.977; in assay [2] (setting [6]), 0.954; in assay [2] (setting [7]), 0.971; in assay [3], 0.327; in assay [4] it was 0.859; in assay [5], 0.642. Besides, the IC50 is > 2560 nM in assay [1]; > 500 nM in assay [2] (setting [6]); > 10000 nM in assay [2] (setting [7]); 52.4 nM in assay [3]; 8670 nM in assay [4]; 15.6 nM in assay [5].
Take LAN-6 (neuroblastoma, adherent): the AUC was found to be 0.956 in assay [1]; 0.984 in assay [2] (setting [6]); 0.979 in assay [2] (setting [7]); 0.882 in assay [3]; 0.97 in assay [4]; 0.767 in assay [5]. Further, the IC50 was > 2560 nM in assay [1]; > 500 nM in assay [2] (setting [6]); > 10000 nM in assay [2] (setting [7]); > 2560 nM in assay [3]; > 10200 nM in assay [4]; 44.2 nM in assay [5].
